Results: patent publication US20240336682A1 (SHENGHE CHINA BIOPHARMACEUTICAL, published 2024)

T1: Human-CD24-His (human, UniProt P25063 27-59)
T1 construct: also called CD24 protein; not shown: His tag
T1 chain (looked up): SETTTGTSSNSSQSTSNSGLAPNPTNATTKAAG


What was measured:
[1] = molecular target: T2, TGFβ1 (UniProt P01137 partial chain, limits assumed); assay: ELISA, TGFb1 coated at 1 ug/mL, HRP goat anti-human IgG-Fc
T2 construct: also called TGFβ1 protein
Protocol: TGFβ1 was diluted to 1 μg/mL with PBS buffer at pH 7.4, added into the 96-well ELISA plate at 100 μL per well, coated overnight at 4° C., and blocked with 1% BSA blocking solution for 1 hour. The plate was washed 3 times with PBST, and the constructed expressing antibodies were diluted to 20 µg/mL with 0.5% BSA sample diluent as the starting concentration, and then diluted by 3-fold gradient (11 gradients in total). A negative control (blank well and IgG1 isotype control) and a positive control were set, and the positive control was TGF-βR2 (Acro, Cat: TG2-H5252), and incubated at 37° C. for 1 h at 100 μL per well. The plate was washed 3 times with PBST, and then HRP-labelled goat anti-human IgG-Fc was diluted with the sample diluent at 1:10000. 100 μL was added into each well, and incubated at room temperature for 1 hour. The plate was washed 4 times with PBST, and 100 μL of TMB substrate was added into each well, and incubated at room temperature without light for 10 minutes. 100 μL of 1 M HCl solution was added into each well to terminate the color development reaction. The absorbance value of each well in the 96-well plate was determined by selecting the wavelength of 450 nm and the reference wavelength of 570 nm on a multifunctional enzyme marker, and the absorbance value (OD)=OD₄₅₀ₙₘ−OD₅₇₀ₙₘ. The logarithm of the concentration of the constructed antibodies were taken as the abscissa, and the measured absorbance value of each well was taken as the ordinate, and the Sigmoidaldose-response (Variable Slope) method (GraphPad Prism software, GraphPad Software, San Diego, California) was selected for nonlinear regression to obtain the binding curve of the target antibodies to the TGFβ1 protein.

[2] = molecular target: T1, Human-CD24-His; assay: ELISA, Human-CD24-His coated at 1 ug/mL, HRP goat anti-human IgG-Fc
Protocol: Human-CD24-His was diluted to 1 μg/mL with PBS buffer at pH 7.4, added into the 96-well ELISA plate at 100 μL per well, coated overnight at 4° C., and blocked with 1% BSA blocking solution for 1 hour. The plate was washed 3 times with PBST, and the constructed antibodies were diluted to 20 μg/mL with 0.5% BSA sample diluent as the starting concentration, and then diluted by 3-fold gradient (11 gradients in total) and incubated at 37° C. for 1 h at 100 μL per well. The plate was washed 3 times with PBST, and then HRP-labelled goat anti-human IgG-Fc (jackson Cat: 109-035-098) was diluted with the sample diluent at 1:10000. 100 μL was added into each well, and incubated at room temperature for 1 hour. A negative control (blank well and IgG1 isotype control) and a positive control were set, and the positive control was a CD24 monoclonal antibody (CD24 sequence consists of SEQ ID No. 12 and SEQ ID No. 34). The plate was washed 4 times with PBST, and 100 μL of TMB substrate was added into each well, and incubated at room temperature without light for 10 minutes. 100 μL of 1 M HCl solution was added into each well to terminate the color development reaction. The absorbance value of each well in the 96-well plate was determined by selecting the wavelength of 450 nm and the reference wavelength of 570 nm on a multifunctional enzyme marker, and the absorbance value (OD)=OD₄₅₀ₙₘ−OD₅₇₀ₙₘ. The logarithm of the concentration of the constructed antibodies were taken as the abscissa, and the measured absorbance value of each well was taken as the ordinate, and the Sigmoidaldose-response (Variable Slope) method (GraphPad Prism software, GraphPad Software, San Diego, California) was selected for nonlinear regression to obtain the binding curve of the target antibodies to the CD24 protein.

Chain of TGFβ1 (P01137 279-390 limits assumed): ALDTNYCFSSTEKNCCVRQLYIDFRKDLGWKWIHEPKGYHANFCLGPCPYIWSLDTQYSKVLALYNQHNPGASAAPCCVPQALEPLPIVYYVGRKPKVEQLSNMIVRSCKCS

EC50 (read off the curve) [1] [µg/mL]	EC50 (read off the curve) [2] [µg/mL]	Binder
~0.3	–	CNT-F (other, also called constructed antibody CNT-F; trifunctional antibody) light 1: EVQLVESGGGLVKPGGSLKLSCTASGFTFSSYVMSWVRQTPEKRLEWVATINDGGSYTYYPDNLKGRFTISRDNAKNNLYLQMSHLRSEDTARYYCSVLRRGNAMDYWGQGTSVTVSSRTVAAPSVFIFPPSDEQLKSGTASVVCLLNNFYPREAKVQWKVDNALQSGNSQESVTEQDSKDSTYSLSSTLTLSKADYEKHKVYACEVTHQGLSSPVTKSFNRGECGGGGSGGGGSGGGGSGGGGSEVQLVESGGGLVQPGGSLRLSCAASGITFSRSVMGWFRQAPGKLRELVAGITSDDNTDYADSVKGRFTISRDNSKNTLYLQMNSLRAEDTAVYYCNILPDSRLGWGQGTLVTVSS heavy 1: DIVMTQSPSSLTATARERVTMSCKSSQSLLNSGNQKNYLTWYQQKPGQPPKLLIYWASTRESGVPDRFTGSGSGTDFTLTVSSVQAEDLAVYYCQNAYFYPFTFGSGTKLEIK[human IgG1 constant region with changes not spelt out]GGSGGGGSGGGGSGGGGSGIPPHVQKSVNNDMIVTDNNGAVKFPQLCKFCDVRFSTCDNQKSCMSNCSITSICEKPQEVCVAVWRKNDENITLETVCHDPKLPYHDFILEDAASPKCIMKEKKKPGETFFMCSCSSDECNDNIIFSEEYNTSNPD heavy 2: EVQLVESGGGLVKPGGSLKLSCTASGFTFSSYVMSWVRQTPEKRLEWVATINDGGSYTYYPDNLKGRFTISRDNAKNNLYLQMSHLRSEDTARYYCSVLRRGNAMDYWGQGTSVTVSS[human IgG1 constant region with changes not spelt out]GGSGGGGSGGGGSGGGGSGIPPHVQKSVNNDMIVTDNNGAVKFPQLCKFCDVRFSTCDNQKSCMSNCSITSICEKPQEVCVAVWRKNDENITLETVCHDPKLPYHDFILEDAASPKCIMKEKKKPGETFFMCSCSSDECNDNIIFSEEYNTSNPD light 2: DIVMTQSPSSLTATARERVTMSCKSSQSLLNSGNQKNYLTWYQQKPGQPPKLLIYWASTRESGVPDRFTGSGSGTDFTLTVSSVQAEDLAVYYCQNAYFYPFTFGSGTKLEIKRTVAAPSVFIFPPSDEQLKSGTASVVCLLNNFYPREAKVQWKVDNALQSGNSQESVTEQDSKDSTYSLSSTLTLSKADYEKHKVYACEVTHQGLSSPVTKSFNRGEC
–	~0.08	DNT-D (other, also called constructed antibody DNT-D; trifunctional antibody) light 1: EVQLVESGGGLVQPGGSLRLSCAASGITFSRSVMGWFRQAPGKLRELVAGITSDDNTDYADSVKGRFTISRDNSKNTLYLQMNSLRAEDTAVYYCNILPDSRLGWGQGTLVTVSSGGGGSGGGGSGGGGSQVQLVQSGSELKKPGASVKVSCKASGYIFTDYAIHWVRQAPGQGLEWMGFINTATGEPTYADDFKGRFVFSLDTSVSTAYLQISSLKAEDTAVYFCTSGVHWGQGTLVTVSSRTVAAPSVFIFPPSDEQLKSGTASVVCLLNNFYPREAKVQWKVDNALQSGNSQESVTEQDSKDSTYSLSSTLTLSKADYEKHKVYACEVTHQGLSSPVTKSFNRGEC heavy 1: DIQMTQSPSTLSASVGDRVTITCSASSSVSSMHWYQQKPGKAPKLLIYSTSNLASGVPSRFSGSGSGTEYTLTISSLQPDDFATYYCHHWTSYMYTFGGGTKVEIK[human IgG1 constant region with changes not spelt out]GGSGGGGSGGGGSGGGGSGIPPHVQKSVNNDMIVTDNNGAVKFPQLCKFCDVRFSTCDNQKSCMSNCSITSICEKPQEVCVAVWRKNDENITLETVCHDPKLPYHDFILEDAASPKCIMKEKKKPGETFFMCSCSSDECNDNIIFSEEYNTSNPD heavy 2: QVQLVQSGSELKKPGASVKVSCKASGYIFTDYAIHWVRQAPGQGLEWMGFINTATGEPTYADDFKGRFVFSLDTSVSTAYLQISSLKAEDTAVYFCTSGVHWGQGTLVTVSS[human IgG1 constant region with changes not spelt out]GGSGGGGSGGGGSGGGGSGIPPHVQKSVNNDMIVTDNNGAVKFPQLCKFCDVRFSTCDNQKSCMSNCSITSICEKPQEVCVAVWRKNDENITLETVCHDPKLPYHDFILEDAASPKCIMKEKKKPGETFFMCSCSSDECNDNIIFSEEYNTSNPD light 2: DIQMTQSPSTLSASVGDRVTITCSASSSVSSMHWYQQKPGKAPKLLIYSTSNLASGVPSRFSGSGSGTEYTLTISSLQPDDFATYYCHHWTSYMYTFGGGTKVEIKRTVAAPSVFIFPPSDEQLKSGTASVVCLLNNFYPREAKVQWKVDNALQSGNSQESVTEQDSKDSTYSLSSTLTLSKADYEKHKVYACEVTHQGLSSPVTKSFNRGEC
–	~0.03	DNT-F (other, also called constructed antibody DNT-F; trifunctional antibody) light 1: QVQLVQSGSELKKPGASVKVSCKASGYIFTDYAIHWVRQAPGQGLEWMGFINTATGEPTYADDFKGRFVFSLDTSVSTAYLQISSLKAEDTAVYFCTSGVHWGQGTLVTVSSRTVAAPSVFIFPPSDEQLKSGTASVVCLLNNFYPREAKVQWKVDNALQSGNSQESVTEQDSKDSTYSLSSTLTLSKADYEKHKVYACEVTHQGLSSPVTKSFNRGECGGGGSGGGGSGGGGSGGGGSEVQLVESGGGLVQPGGSLRLSCAASGITFSRSVMGWFRQAPGKLRELVAGITSDDNTDYADSVKGRFTISRDNSKNTLYLQMNSLRAEDTAVYYCNILPDSRLGWGQGTLVTVSS heavy 1: DIQMTQSPSTLSASVGDRVTITCSASSSVSSMHWYQQKPGKAPKLLIYSTSNLASGVPSRFSGSGSGTEYTLTISSLQPDDFATYYCHHWTSYMYTFGGGTKVEIK[human IgG1 constant region with changes not spelt out]GGSGGGGSGGGGSGGGGSGIPPHVQKSVNNDMIVTDNNGAVKFPQLCKFCDVRFSTCDNQKSCMSNCSITSICEKPQEVCVAVWRKNDENITLETVCHDPKLPYHDFILEDAASPKCIMKEKKKPGETFFMCSCSSDECNDNIIFSEEYNTSNPD heavy 2: QVQLVQSGSELKKPGASVKVSCKASGYIFTDYAIHWVRQAPGQGLEWMGFINTATGEPTYADDFKGRFVFSLDTSVSTAYLQISSLKAEDTAVYFCTSGVHWGQGTLVTVSS[human IgG1 constant region with changes not spelt out]GGSGGGGSGGGGSGGGGSGIPPHVQKSVNNDMIVTDNNGAVKFPQLCKFCDVRFSTCDNQKSCMSNCSITSICEKPQEVCVAVWRKNDENITLETVCHDPKLPYHDFILEDAASPKCIMKEKKKPGETFFMCSCSSDECNDNIIFSEEYNTSNPD light 2: DIQMTQSPSTLSASVGDRVTITCSASSSVSSMHWYQQKPGKAPKLLIYSTSNLASGVPSRFSGSGSGTEYTLTISSLQPDDFATYYCHHWTSYMYTFGGGTKVEIKRTVAAPSVFIFPPSDEQLKSGTASVVCLLNNFYPREAKVQWKVDNALQSGNSQESVTEQDSKDSTYSLSSTLTLSKADYEKHKVYACEVTHQGLSSPVTKSFNRGEC
–	~0.03	DNT-E (other, also called constructed antibody DNT-E; trifunctional antibody) light: DIQMTQSPSTLSASVGDRVTITCSASSSVSSMHWYQQKPGKAPKLLIYSTSNLASGVPSRFSGSGSGTEYTLTISSLQPDDFATYYCHHWTSYMYTFGGGTKVEIKRTVAAPSVFIFPPSDEQLKSGTASVVCLLNNFYPREAKVQWKVDNALQSGNSQESVTEQDSKDSTYSLSSTLTLSKADYEKHKVYACEVTHQGLSSPVTKSFNRGEC heavy 1: EVQLVESGGGLVQPGGSLRLSCAASGITFSRSVMGWFRQAPGKLRELVAGITSDDNTDYADSVKGRFTISRDNSKNTLYLQMNSLRAEDTAVYYCNILPDSRLGWGQGTLVTVSSGGGGSGGGGSGGGGSQVQLVQSGSELKKPGASVKVSCKASGYIFTDYAIHWVRQAPGQGLEWMGFINTATGEPTYADDFKGRFVFSLDTSVSTAYLQISSLKAEDTAVYFCTSGVHWGQGTLVTVSS[human IgG1 constant region with changes not spelt out]GGSGGGGSGGGGSGGGGSGIPPHVQKSVNNDMIVTDNNGAVKFPQLCKFCDVRFSTCDNQKSCMSNCSITSICEKPQEVCVAVWRKNDENITLETVCHDPKLPYHDFILEDAASPKCIMKEKKKPGETFFMCSCSSDECNDNIIFSEEYNTSNPD heavy 2: QVQLVQSGSELKKPGASVKVSCKASGYIFTDYAIHWVRQAPGQGLEWMGFINTATGEPTYADDFKGRFVFSLDTSVSTAYLQISSLKAEDTAVYFCTSGVHWGQGTLVTVSS[human IgG1 constant region with changes not spelt out]GGSGGGGSGGGGSGGGGSGIPPHVQKSVNNDMIVTDNNGAVKFPQLCKFCDVRFSTCDNQKSCMSNCSITSICEKPQEVCVAVWRKNDENITLETVCHDPKLPYHDFILEDAASPKCIMKEKKKPGETFFMCSCSSDECNDNIIFSEEYNTSNPD
